From PubChem BioAssay AID1454 (National Center for Advancing Translational Sciences (NCATS), 2008)
Screen size: about 130,000 compounds; about 550 (0.42%) were called active. The inconclusive results got no clear call from the source; some entries with a clear call stand among them for comparison. Calls follow the shape of the dose curve; as a rule, active = well fitted inhibition curve with a large enough effect; inconclusive = small, poorly fitted or top-dose-only effect, or effect the other way; inactive = flat fitted curve, though single readings scatter. Potencies of inconclusive entries are left out as doubtful fits.

Test: qHTS Assay for Inhibitors of the ERK Signaling Pathway using a Homogeneous Screening Assay; Stimulation with EGF; also: nearly all actives have a fitted effect of over 55% in size
Settings: HEK293-V1b, EGF-stimulated phospho-ERK AlphaScreen
Procedure, shortened: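 Phospho-ERK1/2 measured by AlphaScreen (SureFire) after 5 min 25 nM EGF stimulation of V1b-expressing HEK293 cells preincubated 30 min at 37C with titrated compounds; data scaled to DMSO and EGF controls, Hill-fitted AC50.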
Potency is read from the fitted curve at half-maximal effect; tags tell the direction and shape of the fitted curve.

Row | SMILES | Potency
1 | Cc1ccc(C(=O)N/N=C\c2ccc(-c3ccc(Cl)c(Cl)c3)o2)cn1 | active: 17.8 µM
2 | O=[N+]([O-])c1cccc(C(=S)N2CCN(c3ccccc3)CC2)c1 | inactive
3 | CCOc1ccc(NC(=S)NC(C)CCc2ccccc2)cc1 (centres undefined) | inconclusive [inhibitor, single point]
4 | Cc1ccc2c(CN3CCOCC3)cc(=O)oc2c1 | inactive
5 | O=C1C(Cl)=C(NS(=O)(=O)c2ccc([N+](=O)[O-])cc2)C(=O)c2ccccc21 | inconclusive [inhibitor, partial curve]
6 | CCN(CC)S(=O)(=O)c1cccc(NC(=O)c2ccc(Br)cc2)c1 | active: 14.1 µM
7 | Cc1ccc(C(=O)C(C(=O)/C=C/c2ccccc2)=C2SCCCS2)cc1 | inconclusive [inhibitor, single point]
8 | Cc1nc(N/N=C/c2ccc(O)cc2)c2cnn(-c3ccccc3)c2n1 | inconclusive [inhibitor, single point]
9 | O=C(Nc1ccccn1)C(=O)Nc1ccccn1 | inactive
10 | Cc1ccc(-n2ncc(Br)c(Br)c2=O)cc1 | inactive
11 | CC(C)c1nc(N(C)S(C)(=O)=O)nc(-c2ccc(F)cc2)c1/C=C/C(O)CC(O)CC(=O)O (centres undefined) | inactive
12 | Cn1nnnc1SCCNCc1cc(Cl)ccc1OCc1ccccc1 | inconclusive [inhibitor, single point]
13 | C[C@H]1CC[C@@H]2[C@@H](C)[C@H]3[C@H](C[C@H]4[C@@H]5CC=C6C[C@@H](O[C@]7(O[C@H]8O[C@@H](C)[C@@H](O)[C@@H](O)[C@@H]8O)C[C@@H](O[C@@H]8O[C@H](CO)[C@@H](O)[C@H](O)[C@@H]8O)[C@@H](O)[C@H](CO)O7)CC[C@]6(C)[C@H]5CC[C@@]34C)N2C1 | inactive
14 | O=C1C(NS(=O)(=O)c2cccs2)=C(N2CCN(Cc3ccccc3)CC2)C(=O)c2ccccc21 | active: 15.8 µM
15 | COc1ccc(C(=O)/C(C#N)=N/Nc2ccc([N+](=O)[O-])cc2)cc1 | inconclusive [inhibitor, partial curve]
16 | Cc1cccc(/C=N/n2c(C)cc(C)c(C#N)c2=O)c1 | inactive
17 | CN(C)S(=O)(=O)c1ccc(C(=O)NCc2ccc3[nH]c4c(c3c2)CCCC4)cc1 | inconclusive [inhibitor, single point]
18 | C/C(=N\Nc1nc(Cl)c(Cl)cc1Cl)c1ccc(S(=O)(=O)NCc2ccco2)cc1 | inconclusive [inhibitor, single point]
19 | Cc1ccccc1Oc1cc(-n2ncc(Cl)c(Cl)c2=O)ncn1 | inconclusive [inhibitor, single point]
20 | CCOc1ccc(NC2=C(OC)C(=O)c3ccccc3C2=O)cc1 | active: 12.6 µM
21 | CCCCC(=O)OC1CCC2C3CCc4cc(O)ccc4C3CC[C@]12C (some centres undefined) | inactive
22 | CC(=O)Nc1cccc(Nc2nc(-c3ccccc3)nc3ccccc23)c1 | inconclusive [inhibitor, single point]

Row | SMILES | Potency
23 | COCC(=O)N1CCC2(CC1)CN(c1ccccc1)C2 | inactive
24 | Cc1ccccc1NC(=S)NCCO | inactive
25 | CCC(=O)c1ccc(Oc2ccc(C(=O)c3ccc(C)cc3)cc2[N+](=O)[O-])cc1 | inconclusive [inhibitor, partial curve]
26 | COC(=O)CCc1c(C)c(C(=O)c2cc(F)c(F)c(F)c2F)c2ccccn12 | inconclusive [inhibitor, single point]
27 | COc1ccc(OC)c(Nc2ncnc3c2cnn3-c2cccc(C)c2)c1 | inconclusive [inhibitor, single point]
28 | CCOc1ccc2[nH]c3c(N4CCN(C(=O)c5ccco5)CC4)ncnc3c2c1 | inconclusive [inhibitor, single point]
29 | CCOC(=O)c1c(CSc2ccccc2)n(C)c2ccc(O)c(CN3CCOCC3)c12 | inconclusive [inhibitor, single point]
30 | Cc1ccc(C)c(OCCn2c(=O)c3c(ncn3C3CCCC3)n(Cc3ccccc3)c2=O)c1 | inconclusive [inhibitor, single point]
31 | CCC(C)(C)c1ccc(OCCCC[n+]2cccc(C)c2)c(C(C)(C)CC)c1 | inconclusive [inhibitor, single point]
32 | Cc1cc(C)cc(N(C(=O)c2ccc(Br)o2)C2C=CS(=O)(=O)C2)c1 (centres undefined) | inconclusive [inhibitor, single point]
33 | Cc1onc(-c2ccccc2)c1C(=O)N/N=C/c1ccco1 | inactive
34 | O=[N+]([O-])c1ccc(Sc2cccc[n+]2[O-])c2nonc12 | active: 25.1 µM
35 | Oc1ccccc1/C=N/NC(=S)NC1CC2CC1C1C=CCC21 (centres undefined) | inconclusive [inhibitor, single point]
36 | CC(O)CNCCCOc1ccc(Cl)cc1C(C)(C)C (centres undefined) | inconclusive [inhibitor, single point]
37 | CCOC(=O)c1ccc(Nc2ncccc2[N+](=O)[O-])cc1 | inconclusive [inhibitor, partial curve]
38 | CCOC(=O)c1cccc(NC(=O)c2ccc(N(C)C)cc2)c1 | inconclusive [inhibitor, single point]
39 | COCCNC(=O)COc1ccc(OCCNC[C@@H](O)COc2ccccc2)cc1 | inactive
40 | O=C(Nc1ccc(C(=O)Oc2ccccc2)c(O)c1)c1ccccc1 | inconclusive [inhibitor, single point]
41 | COc1cccc(/C=C2\SC(=S)N(N3CCOCC3)C2=O)c1OC | inconclusive [inhibitor, single point]
42 | Cc1ccc(S(=O)(=O)NCC(=O)N/N=C/c2ccc(Cl)cc2Cl)cc1 | inconclusive [inhibitor, single point]
43 | CC1(C)CC2C1CC[C@]1(C)CCC3C(C(=O)O)CC(=O)O[C@]32C1 (some centres undefined) | inactive
44 | COc1ccccc1C1(CCN=Cc2ccc(N(C)C)cc2)CCOC(C)(C)C1 (centres undefined) | inconclusive [inhibitor, full curve, poor fit]
